Measured values as given in PMC3625234, “The L-Cysteine Desulfurase NFS1 Is Localized in the Cytosol where it Provides the Sulfur for Molybdenum Cofactor Biosynthesis in Humans” (PLoS ONE, 2013).

Molecular target: T1, MOCS3 purified after expression in Sf9 cells (human, UniProt O95396 1-460)
T1 construct: MOCS3, human; no tag is named here; also called pMMC30; source: Sf9 cells, purified
T1 sequence (looked up): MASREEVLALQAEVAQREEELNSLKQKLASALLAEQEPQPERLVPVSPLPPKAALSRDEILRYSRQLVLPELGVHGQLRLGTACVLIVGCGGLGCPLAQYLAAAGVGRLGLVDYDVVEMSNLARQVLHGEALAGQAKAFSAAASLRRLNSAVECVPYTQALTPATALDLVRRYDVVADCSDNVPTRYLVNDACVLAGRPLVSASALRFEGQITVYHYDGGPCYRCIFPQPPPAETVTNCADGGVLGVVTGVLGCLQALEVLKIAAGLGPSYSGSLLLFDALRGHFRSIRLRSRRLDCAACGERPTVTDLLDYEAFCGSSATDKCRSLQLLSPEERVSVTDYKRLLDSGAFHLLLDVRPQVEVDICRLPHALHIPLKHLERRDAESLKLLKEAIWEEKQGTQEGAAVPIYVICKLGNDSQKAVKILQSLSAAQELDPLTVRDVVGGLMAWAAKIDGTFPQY
Test: SPR; Biacore T200, CM5 chip, target immobilized by amine coupling (400–600 RU), 25°C, 30 µL/min, 20 mM phosphate, 150 mM NaCl, 0.005% Tween 20, pH 7.4; analytes 0.31–10 µM; global fit, 1:1 binding, mean of 3 measurements
Conditions: both partners purified

- Kd: 28.3 nM
B1: NFS1Δ[…] (purified) (domain or fragment)
chain: not shown
notes: L-cysteine desulfurase NFS1, human, without […]; also called His6-NFS1Δ[…]; pZM2; source: E. coli BL21(DE3), purified; co-expressed with ISD11 in E. coli for the complex
